The whole screen tested about 150,000 compounds, of which about 540 (0.36%) showed an effect of 50% or more. Some of the results follow.
Each compound was assayed on Plasmodium falciparum (assay: Primary screen in NF54 nanoGlo assay, in single point, at 2uM, 72h; a lower Z score goes with more inhibition). Settings: timepoint 72 hour.
Format: functional, Erythrocyte

Question: Which results are given for `Cc1cc(C)n(Cc2ccccc2)c(=O)n1`?
Answer: % Inhibition: -45%; Z score: 5.29

Question: What does the source list for `C[C@H]1c2cccn2CCN1CC(=O)Nc1ccc2c(c1)OCCCO2`?
Answer: % Inhibition: -11%; Z score: 1.76

Question: For `Cc1cccnc1C1CCCC(Nc2cccc(NC(N)=O)c2)C1` (stereo unspecified), which “% Inhibition” value is on record?
Answer: 0%

Question: What about the Z score of the same compound?
Answer: 0.02

Question: `Cc1ccc(CCC(=O)N[C@H]2CN(CC(N)=O)C[C@@H]2C(C)C)cc1C` was tested. Which “% Inhibition” value did it give?
Answer: -8%

Question: And the Z score?
Answer: 0.89

Question: Which results are given for `CC(=O)Nc1c2n(c3ccc(F)cc13)CC(C)(C(=O)NC1CCCC1)N(CC1CCCO1)C2=O` (stereo unspecified)?
Answer: % Inhibition: -13%; Z score: 1.23

Question: Which “% Inhibition” value does the source give for `CCOC(=O)c1cc2n(n1)C[C@@](C)(C(=O)NCCC(C)C)N(c1cccc(C)c1C)C2=O` here?
Answer: -6%

Question: And the Z score?
Answer: 0.75

Question: For `O=C(Cc1noc(-c2occ3c2CCC3)n1)N(CC(F)(F)F)C1CC1`, which “% Inhibition” value is on record?
Answer: 2%

Question: What about the Z score of the same compound?
Answer: -0.26

Question: What does the source list for `Clc1cc(Cl)cc(N[C@H](c2cccnc2)c2ncc[nH]2)c1`?
Answer: % Inhibition: 14%; Z score: -2.48

Question: With `COC(=O)Nc1cccc(OS(=O)(=O)[C@@H]2CCCC[C@@H]2OC)c1` as the compound, how does the “% Inhibition” value read?
Answer: -3%

Question: And the Z score?
Answer: 0.42

Question: `Cc1cccc(C(=O)NCc2cccnc2N2CCC[C@H](O)C2)n1` was tested. Which “% Inhibition” value did it give?
Answer: 9%

Question: What about the Z score of the same compound?
Answer: -1.18

Question: How did the “% Inhibition” value turn out when `O=c1[nH]nc2ccc(NCCc3csc(-c4ccccc4)n3)nn12` was run?
Answer: -9%

Question: What about the Z score of the same compound?
Answer: 1.4

Question: Which “% Inhibition” value does the source give for `Cc1nc(CC2CC2)oc1C(=O)N1CCC(Nc2nccs2)CC1` here?
Answer: -10%

Question: And the Z score?
Answer: 1.49

Question: How did the “% Inhibition” value turn out when `CC(C)(C)OC(=O)Nc1ccc2c(c1)OCCNC2` was run?
Answer: -3%

Question: What about the Z score of the same compound?
Answer: 0.25

Question: For `CC[C@@H]1CN(C(=O)Cc2ccc3c(c2)OCO3)CC[C@]1(C)O`, which “% Inhibition” value is on record?
Answer: 3%

Question: And the Z score?
Answer: -0.24

Question: How did the “% Inhibition” value turn out when `Cc1n[nH]c(C)c1CNCc1ccc(N(C)C)nc1` was run?
Answer: -1%

Question: What about the Z score of the same compound?
Answer: 0.13

Question: Which “% Inhibition” value does the source give for `Cc1cc(F)ccc1C(=O)NC[C@H]1CCN(c2cnn(C)c(=O)c2)C1` here?
Answer: 2%

Question: What about the Z score of the same compound?
Answer: -0.22

Question: What does the source list for `COc1ccc(CCNC(=O)c2cc3n(n2)CCN(Cc2cccc(F)c2)C3=O)cc1OC`?
Answer: % Inhibition: 31%; Z score: -1.58

Question: How did the “% Inhibition” value turn out when `C[C@]1(O)C[C@@H](NC(=O)c2cc(Br)ccc2O)C1` was run?
Answer: -13%

Question: What about the Z score of the same compound?
Answer: 2.22

Question: How did the “% Inhibition” value turn out when `c1ccc(-c2cc3c(n2C2CCCCC2)[C@@H](c2ccccc2)Oc2ccccc2-3)cc1` was run?
Answer: -3%

Question: What about the Z score of the same compound?
Answer: 0.38

Question: For `COc1ccc(F)c(CN2CC[C@]3(C2)CN(C)C(=O)CO3)c1`, which “% Inhibition” value is on record?
Answer: -10%

Question: And the Z score?
Answer: 1.37

Question: With `COc1ccc(C(=N)NOC(=O)Oc2ccccc2)cc1OC` as the compound, how does the “% Inhibition” value read?
Answer: 1%

Question: And the Z score?
Answer: -0.11

Question: Which “% Inhibition” value does the source give for `COC(=O)c1cn(NC(=O)[C@H](C)O)cc2c(O)nnc1-2` here?
Answer: -1%

Question: What about the Z score of the same compound?
Answer: 0.11

Question: What does the source list for `CCC(CC)C(=O)N(Cc1ccc(-c2ccc(Cl)cc2)o1)[C@H]1CCS(=O)(=O)C1`?
Answer: % Inhibition: -7%; Z score: 0.86

Reference: ChEMBL document CHEMBL4888484, “Replenishing the malaria drug discovery pipeline: Screening and hit evaluation of the MMV Hit Generation Library 1 (HGL1) against asexual blood stage Plasmodium falciparum ,using a nano luciferase reporter read-out” (2022)
